# Out of some 310,000 compounds screened, about 18,000 (5.8%) were called active. Inconclusive means that the source gave no clear call. Such entries were picked first, then a sample of the others. The call rests on the fitted dose curve; in most records, active means well fitted inhibition curve with a large enough effect; inconclusive means small, poorly fitted or top-dose-only effect, or another doubt; inactive means no such curve, though single readings can be large or run the other way. Potencies of inconclusive entries are left out as doubtful fits.
# Assay: Primary qHTS for delayed death inhibitors of the malarial parasite plastid, 48 hour incubation
# Details: P. falciparum luciferase growth in erythrocytes; series mostly up to 28.7 µM; activity change, negative = inhibition: at the top concentration
# Summary of the method: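 Read-out is firefly luciferase luminescence from an integrated reporter in P. falciparum, so falling signal marks reduced parasite growth. Infected erythrocytes were at 2% hematocrit and 0.1% parasitemia (final) in Albumax-supplemented RPMI 1640.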
# On the % scale 0 is the no-effect control and ±100 the full control effect; potency means the concentration at half of the fitted maximal effect; tags describe the fitted curve by direction and shape.
SMILES,Potency,"activity change, negative = inhibition"
COc1ccccc1NS(=O)(=O)c1cccc(C(=O)NCC(c2ccco2)N2CCCCC2)c1 (configuration not stated),active: 5.22 µM,
Cc1ccc(N2C(=O)C3C4C=CC(CC4)C3C2=O)cc1[N+](=O)[O-] (configuration not stated),,inactive: 3.09%
CC(=O)N1CCC(N(CCCOC(C)C)C(=O)Nc2ccc(C)c(C)c2)CC1,,inactive: -16.8%
C/C(=N\NC(=S)NCc1ccccc1)c1ccc(Br)cc1,"inconclusive [inhibitor, single point]",
COCCN(Cc1ccco1)C(=O)C1CCCN(c2ncnc3c2nc2n3CCCCC2)C1 (configuration not stated),"inconclusive [inhibitor, single point]",
CCOc1cc(-c2nc(-c3ccccc3OC)no2)cc(OCC)c1OCC,,inactive: -19.4%
CCOc1ccc(NC(=S)N2CCN(CCN3C(=O)c4cccc5cccc(c45)C3=O)CC2)cc1,"inconclusive [inhibitor, single point]",
CCc1cc(/C(Cc2ccc3ccccc3n2)=N\O)c(O)cc1O,,inactive: 36%
CCOC(=O)c1c(C)n(Cc2ccccc2)c2ccc(OCC(O)Cn3nc(C)nc3C)cc12 (configuration not stated),"inconclusive [inhibitor, partial curve]",
COc1ccc(-c2cnn3c(N)c(S(=O)(=O)c4ccccc4)cnc23)cc1,"inconclusive [inhibitor, single point]",
CC(C)(C)c1ccc(NC(=O)c2c(F)cccc2Cl)cc1,"inconclusive [inhibitor, single point]",
Cc1ccc(OCCSc2nc(N)cc(N)n2)cc1,,inactive: 438%
Cc1ccc(Nc2nc3nonc3[nH]c2=O)cc1,"inconclusive [inhibitor, full curve, poor fit]",
CCOC(=O)C1CCCN(C(=O)c2ccccc2Oc2ccccc2)C1 (configuration not stated),,inactive: -16.6%
O=C(Nc1ccc(F)cc1)C1CCCN(C2=NS(=O)(=O)c3ccccc32)C1 (configuration not stated),"inconclusive [inhibitor, single point]",
COc1ccc2c(c1)[N+](C)(C)C(C)(C)C=C2C,"inconclusive [inhibitor, partial curve, poor fit]",
CCOc1ccc(Nc2nc(-c3cccnc3)cs2)cc1,,inactive: 48%
COc1ccc(CCNC(=O)CCN2C(=O)[C@@H]3Cc4ccccc4CN3C2=O)cc1,"inconclusive [inhibitor, partial curve, poor fit]",
COc1ccccc1CN(C)C(=O)COC(=O)c1cc(C)oc1C,"inconclusive [inhibitor, partial curve, poor fit]",
COc1ccc(C2C(=O)N(C3CCCCC3)CC(=O)N2CC2COc3ccccc3O2)cc1 (configuration not stated),"inconclusive [inhibitor, full curve, poor fit]",
CC(NC(=S)NCCCN1CCOCC1)C12CC3CC(CC(C3)C1)C2 (configuration not stated),,inactive: -9.36%
CCCCC(=O)Nc1ccc(Br)cc1C(=O)O,,inactive: 7.92%
O=C(Nc1ccccc1N1CCOCC1)c1ccc(N2CCOCC2)c([N+](=O)[O-])c1,"inconclusive [inhibitor, full curve, poor fit]",
COc1ccc(C2=NOC(CNC(=O)c3ccccc3Br)C2)c(OC)c1 (configuration not stated),"inconclusive [inhibitor, partial curve]",

SMILES,Potency,"activity change, negative = inhibition"
Cc1ccc(C(c2nnnn2C2CCCCC2)N(C)C2CCCCC2)cc1 (configuration not stated),"inconclusive [inhibitor, full curve, poor fit]",
CCOC(=O)C1=C(COC(=O)CCOc2ccccc2)NC(=O)NC1C (configuration not stated),,inactive: -20.3%
COc1cccc(CNC(=O)CNC(=S)N(Cc2ccccc2)Cc2ccccc2F)c1,active: 11.7 µM,
CNC(=O)CC1C(=O)N(c2ccc(F)cc2)C(=S)N1NC(=O)c1ccc(Br)cc1 (configuration not stated),"inconclusive [inhibitor, single point]",
O=C1C(Cl)=C(N2CCCC2)C(=O)N1c1ccc(F)cc1,"inconclusive [inhibitor, single point]",
CCCCn1c(SCC(=O)Nc2nccs2)nc2ccccc2c1=O,,inactive: -11.2%
FC(F)(F)c1ccc(NC2=NCCCS2)cc1,,inactive: 75.2%
Cc1ccc(S(=O)(=O)N(Cc2c(F)cccc2Cl)C(=O)N2CCN(C)CC2)cc1,"inconclusive [inhibitor, single point]",
O=C(C1CCCN(Cc2cc(Br)ccc2O)C1)N1CCCCC1 (configuration not stated),active: 8.28 µM,
O=S(=O)(/N=C(/NS(=O)(=O)c1ccccc1)c1ccccc1)c1ccccc1,,inactive: 11.9%
COc1cc(C2SCC(=O)N2Cc2ccccc2)ccc1O (configuration not stated),,inactive: 2.17%
Nc1nsc2ccccc12,"inconclusive [inhibitor, single point]",
Cc1cc(C)nc(NS(=O)(=O)c2ccc(NC(=S)NC(=O)c3cccnc3)cc2)n1,"inconclusive [inhibitor, partial curve, poor fit]",
COc1ccc(CC(CN)c2ccccc2)cc1 (configuration not stated),"inconclusive [inhibitor, partial curve, poor fit]",
CCOC(=O)N1CCN(C(=O)c2oc3ccc(S(=O)(=O)N4CCCCC4)cc3c2C)CC1,"inconclusive [inhibitor, partial curve]",
CC(C)Cn1c(N)c(C(=O)COC(=O)c2cc(C(F)(F)F)nc3c(C(F)(F)F)cccc23)c(=O)n(C)c1=O,,inactive: -7.69%
c1ccn2cc(C34CC5CC(CC(C5)C3)C4)nc2c1,"inconclusive [inhibitor, full curve, poor fit]",
CCOC(=O)c1ccc(CNCc2ccc(Br)cc2)cc1,,inactive: -6.54%
Cc1cc(C(=O)Nc2cc(Br)ccc2O)on1,active: 5.22 µM,
CC[n+]1c(/C=C/Nc2ccccc2)oc2ccc(OC)cc21,"inconclusive [inhibitor, single point]",
CC1(C)S[C@@H]2[C@H](NC(=O)[C@H](NC(=O)N3CCN(S(C)(=O)=O)C3=O)c3ccccc3)C(=O)N2[C@H]1C(=O)O,,inactive: -13.8%
CCOCCCNC(=O)c1ccc2c(c1)ncn2-c1ccccc1OC,"inconclusive [inhibitor, partial curve, poor fit]",
C/C(CC(=O)NC1CCCC1)=N\NC(=O)c1ccc([N+](=O)[O-])c(Cl)c1,,inactive: -7.41%
COc1ccc(Cl)cc1N1CCN(CCNC(=O)Nc2ccccc2C)CC1,"inconclusive [inhibitor, single point]",

SMILES,Potency,"activity change, negative = inhibition"
O=C(Nc1cc(Cl)ccc1N1CCCC1)C1=COCCO1,"inconclusive [inhibitor, single point]",
COc1cc2nc(SCC(=O)NCCc3ccccc3)n(Cc3ccco3)c(=O)c2cc1OC,,inactive: -5.01%
COc1ccc(-c2nc(C#N)c(NCCCN3CCOCC3)o2)cc1,,inactive: 33%
CCCOC(=O)c1ccc(Oc2cn[nH]c2-c2ccc(OCC(=O)NN)cc2O)cc1,"inconclusive [inhibitor, single point]",
Cc1ccc(CN2C(=O)C(CC(C)C)Nc3ncnc(N4CCN(c5ccccn5)CC4)c32)cc1 (configuration not stated),active: 9.28 µM,
COC(=O)C1=C(CSCc2ccco2)NC(=O)NC1c1cc(C)ccc1C (configuration not stated),"inconclusive [inhibitor, partial curve]",
COC(=O)c1cc(C(=O)c2ccc(Cl)cc2Cl)cn1C,active: 4.65 µM,
CCOc1cccc2sc(N(CCN(C)C)C(=O)c3ccc4c(c3)OCCO4)nc12,,inactive: -18.9%
CN(C)C(=O)CSc1nc2ccccc2n1Cc1ccccc1,,inactive: 1.05%
CC(C)(C)NCc1cc(Cl)ccc1OCc1cccs1,"inconclusive [inhibitor, single point]",
Cc1ccccc1NC(=O)c1ccc(OCc2c(C)noc2C)cc1,"inconclusive [inhibitor, single point]",
Cc1onc(-c2ccc(Cl)cc2)c1-c1ccnn1S(=O)(=O)c1ccc(Cl)cc1,active: 1.04 µM,
C=CCN(CC=C)c1nc2ccccc2nc1C(C#N)C(=O)OC(C)C (configuration not stated),active: 10.4 µM,
COc1ccc(/C=C/C(=O)Nc2cc(S(=O)(=O)N3CCCCC3)ccc2N2CCCCC2)cc1OC,"inconclusive [inhibitor, single point]",
CN(C(=O)c1cnc(N2CCN(c3ncccn3)CC2)c2ccccc12)c1ccc(Cl)cc1,"inconclusive [inhibitor, partial curve, poor fit]",
Nn1c(SCc2ccccc2F)nnc1-c1cccnc1,,inactive: 112%
CC(NC(=O)c1ccco1)c1nc(-c2ccc(Cl)cc2)no1 (configuration not stated),,inactive: 0%
Cn1cc(CN2CCC(C(O)CCc3ccccc3)CC2)c(-c2ccccc2F)n1 (configuration not stated),"inconclusive [inhibitor, single point]",
COc1ccc(C(=O)NCCc2cc3c(OC)ccc(OC)c3[nH]c2=O)cc1OC,"inconclusive [inhibitor, full curve, poor fit]",
CCCCn1c(N2CCCC2)nc2c1c(=O)[nH]c(=O)n2C,,inactive: -6.92%
CC(C)c1ccccc1-n1c(SCC(=O)N2CCN(c3ccccc3)CC2)nnc1-c1cccnc1,"inconclusive [inhibitor, partial curve, poor fit]",
CCN(CC)CCCNC(=O)CCC(=O)Nc1ccc2nc(N3CCCCC3)cc(C)c2c1,"inconclusive [inhibitor, single point]",
COc1cc(N/C=C2\CC(=O)NC(C)=C2C#N)cc(OC)c1OC,"inconclusive [inhibitor, single point]",
CCC(c1nnnn1Cc1ccc(OC)cc1)N(CCCO)Cc1cc2cc3c(cc2[nH]c1=O)OCO3 (configuration not stated),"inconclusive [inhibitor, partial curve]",
